Earlier results on one compound are cited in patent US20090156668A1, “Ginkgolide Compounds, Compositions, And Extracts, And Uses Thereof” (priority 2004, published 2009).

The conditions of the series: solutions with pH>7; cited from earlier work.

For `CC(C)(C)[C@]1(O)CC2OC(=O)CC23C(=O)OC2OC(=O)[C@H](O)C231` (stereo partly shown) [BB, bilobalide], the stability in solution result is on record as “instability”.
